Measured values as given in PubChem BioAssay AID1346428 (National Center for Advancing Translational Sciences (NCATS), 2018).
The campaign covered roughly 48,000 compounds. About 1,200 (2.5%) were called active. Not shown: some 2% with an inconclusive outcome.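 How the source made its calls: active means activation of at least 60% and not above a set upper limit (about 1 call in 100 departs from these limits); inconclusive means activation of 40% to 60%, or above that upper limit; inactive means activation under 40%.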 The list shows a part of the results.

Molecular target: Probable G-protein coupled receptor 32 (Homo sapiens) (UniProt O75388)
Sequence of UniProt O75388 (O75388 whole entry, looked up): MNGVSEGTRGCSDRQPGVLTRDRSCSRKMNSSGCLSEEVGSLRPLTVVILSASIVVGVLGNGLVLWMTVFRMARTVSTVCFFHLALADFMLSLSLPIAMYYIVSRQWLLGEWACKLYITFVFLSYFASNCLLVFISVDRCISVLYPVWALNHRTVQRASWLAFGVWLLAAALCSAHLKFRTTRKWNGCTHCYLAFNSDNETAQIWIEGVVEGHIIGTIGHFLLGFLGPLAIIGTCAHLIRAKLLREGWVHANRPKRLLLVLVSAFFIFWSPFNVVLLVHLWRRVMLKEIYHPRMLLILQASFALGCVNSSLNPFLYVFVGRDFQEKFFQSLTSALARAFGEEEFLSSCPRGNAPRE
Assay: qHTS for Agonists of Human Resolvin D1 Receptor DRV1; further: 0% is about no effect
Details: CHO-K1 GPR32 beta-arrestin PathHunter luminescence, 90 min; at 76.9 µM; stronger effect = higher value; zero percent set by DMSO-only wells
Summary of the method: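 Beta-arrestin recruitment read-out: luminescence from complemented beta-Gal in CHO-K1 GPR32 PathHunter cells, measured 1 h after detection reagent at ambient temperature following 90 min compound exposure at 37 °C; DMSO served as basal (EC0) control.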

activation, inactive:
CCOCCCn1c(SCC(=O)Nc2ccc(CC)cc2)nc2ccccc2c1=O -24.7%
COc1ccc(C(=O)N(Cc2sccc2C)C2CCS(=O)(=O)C2)cc1 (stereo not given) -13.3%
COc1cc(NC(=O)Cn2ccc3ccccc3c2=O)cc(OC)c1OC 21.8%
Cc1ccc(-n2ncc(C(=O)NCCN3CCN(C)CC3)c2C2CCN(C(=O)OC(C)(C)C)CC2)cc1 0.0845%
CCc1ccc(C2C(C(=O)Nc3ccccc3OC)=C(C)Nc3nc(SCc4ccccc4)nn32)cc1 (stereo not given) -2.38%
CCOc1ccc(CNC(=O)CN2N=C(c3ccccc3)CCC2=O)cc1OC -19.5%
Cc1ccc(CNC(=O)CSc2nc3ccsc3c(=O)n2-c2ccc(Br)cc2)cc1 -13.2%
Cn1c(C(=O)NCCc2ccccc2)cc2sc(Cl)cc21 -8.16%
Cc1nc(C)c(-c2ccc(SCC(=O)Nc3cccc(C)c3C)nn2)s1 -7%
CCCc1ccc(NC(=O)C2CCCN(c3cnccn3)C2)cc1 (stereo not given) -0.657%
CCOc1cc(CNC(=O)Cn2ncn3c(cc4cc(F)ccc43)c2=O)cc(OCC)c1OCC 21%
CCc1ccc(NC(=O)C2CCN(S(=O)(=O)c3cccc(-c4noc(C)n4)c3)CC2)cc1 -9.39%
Cc1ccc(Cn2c(CNC(=O)c3ccc(Cl)c([N+](=O)[O-])c3)nc3cccnc32)cc1 -25.3%
Cc1ccccc1C(=O)NNc1ncnc2c1cnn2-c1cccc(Cl)c1 -0.92%
CC(=O)c1ccc(NC(=O)CC2Nc3cc(C)c(C)cc3NC2=O)cc1 (stereo not given) -15.3%
Cc1noc(C)c1S(=O)(=O)N(CC(=O)NCCc1ccc(Cl)cc1)c1ccc(C(C)C)cc1 1.79%
CCC1Oc2ccc(C)cc2N(CC(=O)N2CCN(c3ccccc3OC)CC2)C1=O (stereo not given) -12.2%
COc1cccc(-c2oc3ccc(C)cc3c(=O)c2O)c1 -4.77%
CCOc1ccc(Nc2nc(C)c(NC(=O)c3cccc(F)c3)c(Nc3ccc(OCC)cc3)n2)cc1 -32.7%
Cc1ccc(NC(=O)CSc2nc3c(sc4ccccc43)c(=O)n2CCCC(=O)NC2CCCC2)cc1C -7.07%
COc1cccc(CNC(=O)c2cc3c(=O)n(Cc4cccnc4)ccc3nc2C)c1 1.61%
COc1ccc(C(=O)Nc2nnc(S(=O)(=O)N3CCN(c4ccc(F)cc4)CC3)s2)cc1 -0.186%
COc1ccc(C(=O)Nc2nnc(S(=O)(=O)N(C)c3ccc(C)cc3)s2)cc1 -6.02%
CCc1cccc(NC(c2ccccc2)c2nnc(-c3ccccc3F)o2)c1 (stereo not given) -34.1%
COc1ccccc1CNC(=O)CN(c1ccccc1OC)S(C)(=O)=O -8.99%
CC(=O)Nc1ccc(OCC(O)CNC(C)C)cc1 (stereo not given) -70.6%
CCOC(=O)c1c(C)[nH]c(C)c1S(=O)(=O)N1CCCC(C(=O)NCc2ccccc2Cl)C1 (stereo not given) -0.499%
Cc1ccc2oc(-c3cc(NC(=O)CC(C)C)ccc3Cl)nc2c1 14.5%
CCCc1cc(=O)oc2c(C)c3c(cc12)CN(CCc1ccc(Cl)cc1)CO3 -25.7%
CCC(C)NC(=O)Cn1c(=O)n(-c2ccc(OC)c(OC)c2)c(=O)c2ccccc21 (stereo not given) 2.95%
Cc1ccc2c(c1)Cc1c(nc(-c3ccc(F)cc3)nc1SCC(=O)N1CCCCC1)O2 -1.31%
Cc1ccc(Nc2c(-c3cccnc3)nc3ccc(Cl)cn23)cc1 -16.7%
CCOC(=O)C1CCN(C(=O)c2c(C)nn(-c3ccc(F)cc3)c2-n2cccc2)CC1 -5.55%
COc1ccc2cc(CCNS(=O)(=O)c3ccc(C)cc3)c(=O)[nH]c2c1 0.159%
COc1ccccc1N1CCN(C(=O)CCS(=O)(=O)c2cc(Br)cc3c2N(C(C)=O)CC3)CC1 28%
Cc1cc(C)c2oc(-c3ccc(C)c(NC(=O)/C=C/c4ccco4)c3)nc2c1 18.3%
COc1ccc(CNC(=O)c2cc3c(=O)n(C)c4ccccc4c3n2C)c(OC)c1 19.7%
O=C(COc1ccc(Cl)cc1)NCC(c1ccco1)S(=O)(=O)c1ccc(Cl)cc1 (stereo not given) -17.4%
Cc1nc(N2CCCC2)ncc1C(=O)N1CCN(c2ccccc2F)CC1 -5.71%
Cc1ccc(C(=O)n2nc(C)c(S(=O)(=O)N3CCOCC3)c2C)cc1C -5.29%
CC1=C(C(=O)Nc2ccccc2)C(c2cc(Br)ccc2F)n2ncc(C(=O)Nc3ccccc3)c2N1 (stereo not given) -23.2%
COc1cccc(-c2nc(S(=O)(=O)c3ccccc3)c(N3CCC(C)CC3)o2)c1 10.8%
CCS(=O)(=O)c1c(Nc2cc(C)ccc2C)sc(C(=O)c2ccccc2)c1N -47.7%
Cc1ccc(NC(=O)c2nnn(CC(=O)Nc3ccc(C)c(Cl)c3)c2N)c(C)c1 -7.39%
O=C(Nc1ccccc1)OCC(CN1CCCCC1)OC(=O)Nc1ccccc1 (stereo not given) 16.8%
O=c1c2ccccc2nc(-c2ccc(Cl)cc2)n1CCCOc1ccccc1F -2.91%
CCOc1cccc2sc(NC(=O)CS(=O)(=O)c3ccc(C)cc3)nc12 -14%
COC(=O)Cc1c(C)nc2nc(-c3ccc(C)cc3)[nH]n2c1=O 9.12%
CCOc1ccc(CCNC(=O)c2cnc3sc(N4CCCCC4)nn3c2=O)cc1 10.2%
COc1ccc(N2C(=O)CSC23C(=O)N(CC(N)=O)c2ccccc23)cc1 (stereo not given) -14.6%
CCN(Cc1ccccc1)S(=O)(=O)c1ccc(F)c(C(=O)Nc2cc(C(F)(F)F)ccc2Cl)c1 -7.81%
CC(C)c1ccc(N2C(=O)N(Cc3ccccc3Cl)c3ccccc3S2(=O)=O)cc1 -7.02%
COc1ccc(-n2c(=O)c3sc4ccccc4c3n(CC(=O)NC3CCCCC3)c2=O)cc1 5.77%
O=C(Nc1cc(C(F)(F)F)ccc1Cl)c1cnn(-c2ccccc2)c1-n1cccc1 13.8%
COC(=O)c1ccc([C@H]2Nc3ccc(S(=O)(=O)Nc4cccc(C)c4)cc3[C@H]3C=CC[C@H]32)cc1 -23.1%
COc1ccc(-n2c(=O)c3c(c4cc(OC)ccc4n3C)n(CCC(C)C)c2=O)cc1 -14.6%
COC(=O)c1c(-c2ccccc2)c(-c2ccccc2)nn(C)c1=O 1.65%
CCCCOc1ccc(C(=O)N(Cc2ccco2)Cc2ccco2)cc1 -36.9%
COc1ccccc1C1CC(=O)N(c2cccc(C(F)(F)F)c2)C2=C1C(=O)OC2 (stereo not given) 5.21%
COCCNC(=O)CCCn1c(SCc2ccccc2Cl)nc2c(sc3ccccc32)c1=O -0.892%
Cc1cc(Br)cc2c(C(=O)OCC(=O)c3ccccc3)cc(-c3ccccc3)nc12 7.55%
Cc1c(-c2nnc(SCC(=O)Nc3ccc(Cl)cc3)o2)nnn1-c1ccc(F)cc1 23.9%
Cc1cccc(N(CC(N)=O)C2SC(=O)N(Cc3cccc(C(=O)O)c3)C2=O)c1 (stereo not given) -85.1%
CCC(=O)Nc1nnc2n1CCS2 7.76%
Cc1ccc(/C=N/n2c(-c3ccccc3)csc2=S)cc1 -43.1%
Cc1cc(CN2CCN(c3ccc(F)cc3)CC2)cs1 -11%
O=c1[nH]c(SCc2cccc(Cl)c2)nc2c1CCC2 19.8%
CCN1CCSc2ccc(C(=O)NCc3ccccc3Br)cc21 -34.3%
COc1ccccc1N1CCN(C(=O)c2cnc(N3CCOCC3)c3ccccc23)CC1 -14.3%
COc1ccc(CCNC(=O)CCc2cn(Cc3ccc(C)cc3)c3ccccc23)c(OC)c1OC -27.2%
CCC(C)NC(=O)c1[nH]c2cc(C)ccc2c1Sc1ccc(Cl)cc1 (stereo not given) -2.81%
CCOc1cc2[nH]c(=O)n(CCCCC(=O)N3CCN(c4ccccc4)CC3)c(=O)c2cc1OCC -5.21%
COc1ccc(-c2noc(N3CCC(C(=O)N(C)c4cc(Cl)ccc4OC)CC3)n2)cc1 -26.6%
COc1ccc2oc(=O)c(-c3cn4c(n3)sc3cc(F)ccc34)cc2c1 -9.4%
COc1ccc2c(CNCCc3cccs3)c(C(=O)O)n(Cc3ccccc3C)c2c1 -10.5%
O=C(CN1C(=O)COc2ccc(S(=O)(=O)N3CCCCCC3)cc21)N1CCN(c2cccc(C(F)(F)F)c2)CC1 3.58%
Cc1cccc(C)c1OCC(=O)Nc1c(C(=O)c2ccc(Br)cc2)oc2ccccc12 10.7%
CCCOc1ccc(-c2nc(N3CCC(C)CC3)c3ccccc3n2)cc1 15.2%
CCCn1c2ccccc2c2cnn(CC(=O)N(Cc3ccccc3)C(C)C)c(=O)c21 24.9%
CCCCOc1ccc(S(=O)(=O)NCc2csc(-c3ccc(OC)cc3)n2)cc1 -5.31%
COc1ccc(CC(=O)NCC(c2cccs2)S(=O)(=O)c2ccc(Cl)cc2)cc1 (stereo not given) 0.402%
CCN(CC)CC1CCCCN1CC(=O)N1c2ccccc2C(=O)Nc2cccnc21 (stereo not given) -12.6%
Cc1ccc(S(=O)(=O)NCCc2nnc3ccc(SCc4ccc(F)cc4)nn23)cc1 -18.7%
Cc1cc(F)ccc1NC(=O)c1ccc2nc(Cc3ccccc3)oc2c1 -24.3%
COc1ccc(-n2ccn(CC(=O)NCc3ccc(C)cc3)c(=O)c2=O)cc1OC -1.58%
